From publication PMC4336329 (PLoS ONE, 2015)
Screen size: about 310,000 compounds; about 2,200 (0.71%) showed an effect of 50% or more. Effects have a minus sign here. Some of the results follow.

biological target: human ether-à-go-go-related gene (hERG) potassium channel (human, UniProt Q12809); assay: primary screen, population patch clamp on CHO cells stably expressing hERG
Sequence (Q12809 whole entry, looked up): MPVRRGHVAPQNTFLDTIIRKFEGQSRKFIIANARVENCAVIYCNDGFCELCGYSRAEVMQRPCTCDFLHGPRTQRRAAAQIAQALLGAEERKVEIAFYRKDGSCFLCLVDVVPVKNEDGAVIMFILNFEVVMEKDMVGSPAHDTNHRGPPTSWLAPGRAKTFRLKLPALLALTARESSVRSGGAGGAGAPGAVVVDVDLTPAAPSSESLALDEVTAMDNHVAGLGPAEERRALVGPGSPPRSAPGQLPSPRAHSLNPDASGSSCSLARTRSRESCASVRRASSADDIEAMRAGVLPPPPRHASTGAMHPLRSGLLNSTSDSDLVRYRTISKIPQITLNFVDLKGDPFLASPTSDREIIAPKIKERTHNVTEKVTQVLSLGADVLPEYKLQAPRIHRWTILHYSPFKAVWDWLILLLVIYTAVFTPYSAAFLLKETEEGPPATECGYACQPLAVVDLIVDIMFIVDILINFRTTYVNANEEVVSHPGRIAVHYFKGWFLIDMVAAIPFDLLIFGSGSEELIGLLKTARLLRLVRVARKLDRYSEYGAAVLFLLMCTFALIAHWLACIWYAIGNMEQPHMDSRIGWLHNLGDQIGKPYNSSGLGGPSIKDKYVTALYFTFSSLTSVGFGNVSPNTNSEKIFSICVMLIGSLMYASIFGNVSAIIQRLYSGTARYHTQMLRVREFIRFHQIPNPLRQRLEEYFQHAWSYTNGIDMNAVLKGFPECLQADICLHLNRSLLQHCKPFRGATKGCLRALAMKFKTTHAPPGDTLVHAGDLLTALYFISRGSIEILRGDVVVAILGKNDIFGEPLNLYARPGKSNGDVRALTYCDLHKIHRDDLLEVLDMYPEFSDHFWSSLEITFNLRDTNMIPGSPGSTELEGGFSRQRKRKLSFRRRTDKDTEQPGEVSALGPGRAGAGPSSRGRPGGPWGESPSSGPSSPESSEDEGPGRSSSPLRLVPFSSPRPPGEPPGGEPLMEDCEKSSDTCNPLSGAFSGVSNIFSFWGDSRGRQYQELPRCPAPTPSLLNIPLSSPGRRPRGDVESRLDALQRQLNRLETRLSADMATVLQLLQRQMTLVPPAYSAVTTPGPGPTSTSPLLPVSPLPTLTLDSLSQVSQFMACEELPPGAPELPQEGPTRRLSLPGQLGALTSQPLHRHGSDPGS

Row | SMILES | hERG current change (%, negative = inhibition) at 1uM [%]
1 | COc1cccc(NC(=O)CN2CCSc3ccccc32)c1 | 3.15
2 | CCOC(=O)c1ccc(Nc2ncnc3nc[nH]c23)cc1 | 5.55
3 | Cc1nn(-c2ccccc2)c(Cl)c1/C=C1\C(=O)N(C)C(=S)N1C | 12.2
4 | CCOC(=O)c1nnn2c1nc(Nc1cccc(C(F)(F)F)c1)c1ccccc12 | 13.8
5 | Cc1cc(C(=O)OCC(=O)Nc2ccc(F)cc2F)c(C)o1 | 4.61
6 | O=C(C1=C(O)C(=O)N(c2ncccn2)C1c1cccc(Cl)c1)c1ccco1 (centres unmarked) | 17.6
7 | C/C(=N/NC(=O)c1ccc(Br)o1)c1cccs1 | 11.3
8 | O=C(NCc1ccc2c(c1)OCO2)c1cccc(Cl)c1 | 6.31
9 | CN(C)c1ccc(C2Nc3ccccc3C(=O)N2CCN2CCNC2=O)cc1 (centres unmarked) | 8.38
10 | Cc1ccccc1N=C1NC(=O)/C(=C/c2cccnc2)S1 | 15.8
11 | COc1ccccc1Oc1nc([N+](=O)[O-])nn1CC(N)=O | 19.9
12 | CCc1nnc(NC(=O)CSc2nc(C)cc(C)c2C#N)s1 | 8.79
13 | COC(=O)C1=C(C)NC(C)=C(C(=O)OC)C1C1CC=CCC1 (centres unmarked) | 15.7
14 | CCOC(=O)N1CCN(C(=O)C(CC)n2nc(C)c3sc4ccccc4c3c2=O)CC1 (centres unmarked) | 11.6
15 | Cc1ccc(S(=O)(=O)N2CCN(CC(=O)N/N=C\c3ccc(O)c(O)c3)CC2)cc1 | 6.18
16 | O=C(NCCNC(=O)c1ccccc1Br)c1ccccc1Br | 11.3
17 | CC(C)C(c1nnnn1C1CCCC1)N1CCCc2ccccc21 (centres unmarked) | 6.29
18 | Cc1cc(Sc2ccc([N+](=O)[O-])cn2)ccc1Br | 4.44
19 | O=C(Nc1ccc([N+](=O)[O-])cc1)N1CCc2ccccc2C1 | 3.69
20 | O=C(Cc1cccs1)N1CCN(c2ccc(F)cc2)CC1 | 2.38
21 | CCCNC(=O)C(=O)NCCC1=CCCCC1 | 9.24
22 | Cc1ccc(-n2nc3c(c2NC(=O)c2c(-c4ccccc4Cl)noc2C)CS(=O)(=O)C3)c(C)c1 | 10.6
23 | COc1ccc(C(=O)Nc2ccc(NC(=O)c3cccc(F)c3)cn2)cc1 | 14.8

Row | SMILES | hERG current change (%, negative = inhibition) at 1uM [%]
24 | CCc1ccc2nc(SCC(=O)NCC3CCCO3)c(C#N)cc2c1 (centres unmarked) | 10.8
25 | Cc1ccc(S(=O)(=O)N2CCN(C(=O)CC3CCCC3)CC2)cc1 | 5.57
26 | CCC(=O)c1ccc(OCc2ccccc2)c(OC)c1 | 16.7
27 | CCCCN(C(C)=O)C1CC(=O)N(c2ccc(OCCC)cc2)C1=O (centres unmarked) | 10.5
28 | CC(C)(C)c1ccc(C(=O)N/C(=C\c2ccco2)C(=O)Nc2ccccc2C(=O)O)cc1 | 16.5
29 | Clc1cccc(Oc2ncc(CN3CCOCC3)s2)c1 | 2.05
30 | CCOc1cc(C)c(C(C)C)cc1S(=O)(=O)N1CCOCC1 | 8.94
31 | CCCNC(=O)c1ccc(N2CCC3(CC2)CC(c2cccc(Br)c2)=NO3)c(NC(=O)c2cccc(C)c2)c1 | 13.9
32 | COc1ccc2[nH]c(C)c(CCNC(=S)Nc3ccccc3C)c2c1 | 11.7
33 | C=CCn1c(-c2sc3nc(C)cc(C)c3c2N)n[nH]c1=S | 9.47
34 | O=C(NCC(c1cccs1)N1CCOCC1)c1cc(-c2ccccn2)nc2ccccc12 (centres unmarked) | -2.9
35 | O=C(O)CC1SC(=O)N(CC(=O)c2ccccc2)C1=O (centres unmarked) | 8.06
36 | CCc1ccc(C(=O)COC(=O)C(Cc2ccccc2)NC(=O)c2ccc(Cl)cc2)cc1 (centres unmarked) | 9.37
37 | CC(=O)c1cccc(NC(=O)C(C)OC(=O)CNC(=O)c2ccc(C)s2)c1 (centres unmarked) | 13.3
38 | CC(C)C[C@H](NC(=O)Nc1ccc(Oc2ccccc2)cc1)C(=O)O | 11.2
39 | Cc1ccc(NC(=O)Cn2cnc3cc([N+](=O)[O-])ccc3c2=O)c(Cl)c1 | 10.9
40 | Cc1ccc(C(=O)c2c(C)oc3c2C(=O)C(=O)c2ccccc2-3)cc1 | 16.9
41 | Br.N=C1c2ccccc2CN1c1ccc(N2CCOCC2)c(S(=O)(=O)Nc2ccc(Cl)cc2)c1 | -89.2
42 | CC(=O)c1cccc(NC(=O)Oc2ccccc2)c1 | 6
43 | COc1ccc(C(=O)Oc2ccc(/C=N/NC(=O)c3cccnc3)cc2OC)cc1 | 3.46
44 | CCn1c(=O)cc(OCC(=O)NCc2ccco2)c2ccccc21 | 7.08
45 | C/C(=N\NC(=O)CNC(=O)C1COc2ccccc2O1)c1ccc(Cl)cc1 (centres unmarked) | 3.71
46 | COC(=O)c1ccc(S(=O)(=O)NCCc2ccccc2OC)n1C | -0.459

Row | SMILES | hERG current change (%, negative = inhibition) at 1uM [%]
47 | CN(c1ccccc1)S(=O)(=O)c1ccc(Cl)c(C(=O)Nc2ccc(-c3nc4ccccc4[nH]3)cc2)c1 | 16.2
48 | O=C(c1cccc(C(F)(F)F)c1)N1CCN(C2CCCCC2)CC1 | -6.65
49 | CCn1c(C)nc2cc(C(=O)NNC(=O)Nc3ccc(Cl)c(Cl)c3)ccc21 | 16
50 | Cc1ccc(-n2c(C)nn(CCOc3ccccc3)c2=O)cc1 | 6.78
51 | O=C(NCC12CC3CC(CC(C3)C1)C2)c1nn2c(c1Cl)NC(c1ccco1)CC2C(F)(F)F (centres unmarked) | 12.4
52 | C=CCn1c(SCc2nc3ccccc3c(=O)[nH]2)nc2sc3c(c2c1=O)CCCC3 | 11.6
53 | CCn1cc(CNC(=O)C2C3CCC(C3)C2C(=O)O)cn1 (centres unmarked) | 14
54 | O=C(NCc1ccco1)/C(=C\C=C\c1ccccc1)NC(=O)c1ccco1 | -2.52
55 | CN(C)c1cccc(C(=O)OCC(=O)NCC2CCCO2)c1 (centres unmarked) | 10.5
56 | Cn1c(CNc2ccccc2O)nc2ccccc21 | 5.44
57 | Cc1ccc(Cn2c(SCC(=O)N(C)C3CCS(=O)(=O)C3)nc3ccccc3c2=O)cc1 (centres unmarked) | -41.9
58 | O=C(Nc1ccccn1)c1ccc(Cl)c(S(=O)(=O)N2CCc3ccccc32)c1 | 8.29
59 | Cc1ccc(CNC(=O)C(=O)NCC2OCCN2S(=O)(=O)c2ccc(C)cc2)cc1 (centres unmarked) | 10.9
60 | CC(=O)c1cccc(NC(=O)CCCSc2ccccc2)c1 | 7.62
61 | O=C(CCCN1C(=O)/C(=C/c2cccs2)SC1=S)Nc1ccc(O)cc1 | 14.8
62 | O=C(Nc1cccc(-c2cnc3ccccc3n2)c1)c1cccc(NC(=O)c2ccco2)c1 | 11.2
63 | CCn1c(SCC(=O)Nc2ncc(C(F)(F)F)cc2Cl)nnc1-c1ccccc1 | 4.37
64 | CCn1c(SCC(=O)Nc2ccc(F)cc2)nnc1C1CC1 | 14.6
65 | CCOC(=O)c1ccc(N2C(=O)CC(SCC(N)C(=O)OCC)C2=O)cc1 (centres unmarked) | 1.59
66 | Cc1ccc(OCc2nnc(SCC(=O)NCc3ccco3)n2C)cc1 | -4.78
67 | Nc1cccn2c(-c3ccc(Cl)cc3)cnc12 | 12.3
68 | CC(=O)N1CCN(c2ccc([N+](=O)[O-])c(NCC3CCCO3)c2)CC1 (centres unmarked) | -1.4
69 | Cc1ccc(-c2nnn(CC(=O)N(CC(=O)NC3CCCCC3)c3ccc(F)c(Cl)c3)n2)o1 | 14.2

Row | SMILES | hERG current change (%, negative = inhibition) at 1uM [%]
70 | CCOc1ccc(C(=O)N2CCN(c3ccccc3)CC2)cc1 | -0.559
71 | C=CCn1c(COc2ccccc2F)nnc1SCC(=O)NC(=O)NCc1ccco1 | 2.24
72 | CC1(C)CC2CC(C)(CN2C(=O)Cc2ccccc2)C1 (centres unmarked) | 5.8
73 | COc1ccc(C(=O)CSc2nnc(-c3ccccc3)o2)cc1 | 9.48
74 | COc1ccc(-c2cc(C(F)(F)F)c(C#N)c(SCC(=O)Nc3nc(C)co3)n2)cc1 | 14
75 | COc1ccc(OC)c(NC(=O)CCN2CCCCC2)c1 | 5.68
76 | O=[N+]([O-])c1ccccc1S(=O)(=O)N1CCN(C2CCCC2)CC1 | 9.1
77 | Oc1ccc(C2Nc3cccc4cccc(c34)N2)cc1 | 12.4
78 | C=C(C)CN1C(=O)C2(OCCO2)c2ccccc21 | 14.9
79 | COc1cc(NC2CCCCC2O)c2nc(-c3ccc(Cl)cc3)ccc2c1 (centres unmarked) | 3.63
80 | Cc1c(CN(C)C(=O)c2nn(C)cc2[N+](=O)[O-])cnn1C | 10.8
81 | CC1(C)CC(=O)C(C=NCCN2CCN(C(=S)Nc3cccc(Cl)c3)CC2)=C(O)C1 | -27.6
82 | CC(C)(CO)NCC#Cc1ccccc1.Cl | 7.46
83 | COc1cccc(-c2nc(CCl)cs2)c1.Cl | 36.5
84 | CCOC(=O)C1CCN(S(=O)(=O)Cc2ccccc2)CC1 | 8.66
85 | CCCC(C)NC(=O)COC(=O)c1ccc2c(c1)C(=O)N(Cc1ccco1)C2=O (centres unmarked) | 14.2
86 | Cc1nc2c(-c3ccc(Cl)cc3)cnn2c(N)c1-c1ccc(F)cc1 | 16.1
87 | Cc1nnc2sc(-c3ccc(NC(=O)c4ccc(-c5ccc(Cl)cc5Cl)o4)cc3)nn12 | 13.1
88 | O=C(O)CC(O)C(=O)O (centres unmarked) | 17.6
89 | O=S(=O)(c1ccccc1)N1N=C(c2ccc(Br)cc2)CC1c1ccco1 (centres unmarked) | 9.25
